Experimental data as given in PubChem BioAssay AID686978 (National Center for Advancing Translational Sciences (NCATS), 2013).
The campaign covered roughly 420,000 compounds. About 64,000 (15%) were called active. The inconclusive results got no clear call from the source; some entries with a clear call stand among them for comparison. The call rests on the fitted dose curve; in most records, active means well fitted inhibition curve with a large enough effect; inconclusive means small, poorly fitted or top-dose-only effect; inactive means flat fitted curve, though single readings scatter. No potency is given beside an inconclusive call; the fits are too rough.
Potency means the concentration at half of the fitted maximal effect; tags describe the fitted curve by direction and shape.

Experiment: qHTS for Inhibitors of human tyrosyl-DNA phosphodiesterase 1 (TDP1): qHTS in cells in absence of CPT; further: nearly all actives have a fitted effect of over 55% in size
Conditions: DT40 Tdp1-/- hTDP1 cells, no CPT, ATP luminescence, 48 h; series mostly up to 46.2 µM
Outline: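 Growth of hTDP1-complemented DT40 Tdp1-knockout cells is measured by ATP luminescence after at least 48 hr compound exposure at 37 °C, with DMSO substituting for the 20 nM CPT used in the parallel screen.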
With `C=CCNC(=S)NNC(=O)C(CCCC)CC(C)(C)O` (stereo not drawn) the Potency was active: 7.31 µM. In the case of `O=C(NCc1ccco1)c1ccc2c(c1)N(Cc1ccccc1)CCS2`, the Potency is reported as “inactive”. For `O=C(Nc1nccs1)c1cn2ccccc2n1`, the Potency was “inactive”. In the case of `COc1cccc(C2C(C(=O)c3cccs3)=C(O)C(=O)N2CCN2CCOCC2)c1` (stereo not drawn), the Potency is reported as “inactive”. With `Cc1ccc(N=C2NC(=O)/C(=C\c3ccc(C)s3)S2)cc1` the Potency was inconclusive [inhibitor, single point]. With `CN(C(=O)CSc1nncc2ccccc12)c1ccccc1` the Potency was “inactive”. For `c1ccc(Oc2cccc3cccnc23)nc1`, the Potency was “inactive”. In the case of `COC(=O)c1ccccc1NC(=O)C(C)NS(=O)(=O)c1ccc(OC)cc1` (stereo not drawn), the Potency is reported as inconclusive [inhibitor, single point]. In the case of `C=C(C)COc1ccc2c(C)c(CCC(=O)NC3CC3)c(=O)oc2c1`, the Potency is reported as inconclusive [inhibitor, partial curve, poor fit]. For `CC(=O)c1cc(-c2ccc(F)cc2)n(CC(=O)NCc2cccs2)c1C`, the Potency was inconclusive [inhibitor, single point]. In the case of `CCCC1=C(C(=O)OCC)C(c2ccc(N(C)C)cc2)n2ncnc2N1` (stereo not drawn), the Potency is reported as active: 25.9 µM. For `COc1ccc(C(C(=O)Nc2ccc(C(C)C)cc2)N(C)C(=O)Cc2cccs2)cc1` (stereo not drawn), the Potency was inconclusive [inhibitor, single point]. For `Cc1ccc(CC2(C)C(=O)Nc3c(Cl)cccc32)cc1` (stereo not drawn), the Potency was inconclusive [inhibitor, single point]. In the case of `CCOC(=O)N1CCN(CC(=O)Nc2c(C(=O)OC)[nH]c3cc(C)ccc23)CC1`, the Potency is reported as inconclusive [inhibitor, single point]. For `Oc1cc(-c2ccccc2)c2ccccc2c1`, the Potency was inconclusive [inhibitor, single point]. With `O=C(O)c1ccccc1CSc1nc2ccccc2[nH]1` the Potency was “inactive”. With `O=c1ccc(=O)n2n1CC(O)C2` the Potency was inconclusive [inhibitor, single point]. In the case of `CN(C(=O)CSc1nnc(CN2CCCC2)n1Cc1ccccc1)c1ccccc1`, the Potency is reported as “inactive”. With `S=C(Nc1ccc(Oc2ccccc2)cc1)Nc1cccnc1` the Potency was inconclusive [inhibitor, partial curve]. In the case of `O=C(COC(=O)c1ccc(Sc2ccccc2)c([N+](=O)[O-])c1)NC1CCCc2ccccc21` (stereo not drawn), the Potency is reported as “inactive”. In the case of `Cc1cccc(Nc2nc(NCc3ccco3)nc(N3CCOCC3)n2)c1`, the Potency is reported as inconclusive [inhibitor, single point]. In the case of `O=C(Nc1ccc(OC(F)(F)F)cc1)C1CCCN(S(=O)(=O)c2ccc(Br)s2)C1` (stereo not drawn), the Potency is reported as inconclusive [inhibitor, single point]. In the case of `OC(c1ccccc1)(c1ccccc1)c1nccn1-c1ccccc1`, the Potency is reported as inconclusive [inhibitor, single point]. With `Cc1cc(Cl)cc(Br)c1OCCCNCC(C)O` (stereo not drawn) the Potency was inconclusive [inhibitor, single point]. For `O=C(C(Cc1ccccc1)N1C(=O)c2ccccc2C1=O)N1c2ccccc2CCc2ccccc21` (stereo not drawn), the Potency was active: 6.51 µM. For `Cc1ccccc1Nc1nnc(-c2ccc(C)c(S(=O)(=O)N3CCN(C)CC3)c2)c2ccccc12`, the Potency was inconclusive [inhibitor, partial curve, poor fit]. For `NC(=NCc1ccccc1)NN=Cc1ccnc2ccccc12`, the Potency was inconclusive [inhibitor, single point]. With `CC(=O)N/C(=C\c1ccc(F)cc1)C(=O)NC(Cc1ccccc1)C(=O)O` (stereo not drawn) the Potency was “inactive”. In the case of `CC(Oc1ccc(F)cc1Br)c1nc2ccccc2c(=O)[nH]1` (stereo not drawn), the Potency is reported as “inactive”. With `CNc1cncc(-c2ccc(CN3CCOCC3)cc2)n1` the Potency was inconclusive [inhibitor, single point]. In the case of `C=CCSc1nc(C)c(CC(=O)OCCCC)c(=O)[nH]1`, the Potency is reported as inconclusive [inhibitor, single point]. For `Cc1cccc(NS(=O)(=O)c2cccc(C(=O)N3CCCC3)c2)c1`, the Potency was inconclusive [inhibitor, single point]. In the case of `O=C(CCc1nnc(Cc2ccc(-c3ccccc3)cc2)o1)N1CCCC1`, the Potency is reported as inconclusive [inhibitor, single point]. For `CN(C(=O)c1ccc(NC(=O)Cc2ccc(NC(=O)C3CCCN(C(=O)C4CCCC4)C3)cc2)cc1)C1CCCC1` (stereo not drawn), the Potency was inconclusive [inhibitor, partial curve]. With `CCc1ccc(OCC(=O)N2CC(C(N)=O)Oc3ccccc32)cc1` (stereo not drawn) the Potency was “inactive”. In the case of `CN(C)c1ccc(N=Nc2ccccc2C(=O)OCC(=O)N(C)C2CCCCC2)cc1`, the Potency is reported as “inactive”. For `CN(C)C(CNC(=O)c1cccc(S(=O)(=O)N(C)C)c1)c1ccccc1` (stereo not drawn), the Potency was “inactive”. With `Cc1ccc(-c2noc(-c3ccccc3Br)n2)cc1` the Potency was inconclusive [inhibitor, single point]. For `CN(C)c1ccc(-c2nc3ccccc3n2C)cc1`, the Potency was active: 13 µM. In the case of `CC(=O)Oc1ccc2ccccc2c1C(NC(=O)C(C)C)c1cccc([N+](=O)[O-])c1` (stereo not drawn), the Potency is reported as inconclusive [inhibitor, single point]. For `O=C1C(Cc2ccccc2)Nc2ncnc(N3CCc4ccccc4C3)c2N1Cc1ccccc1` (stereo not drawn), the Potency was active: 16.4 µM. With `COc1ccc2cc3cc(C(=O)N4CCCCC4C)oc3nc2c1` (stereo not drawn) the Potency was inconclusive [inhibitor, single point]. For `CC(=O)N[C@H](Cc1c[nH]c2ccccc12)C(=O)O`, the Potency was “inactive”. In the case of `Cc1cc(=O)oc2cc(OCc3ccc(C(=O)N4CCN(c5ccccc5)CC4)cc3)ccc12`, the Potency is reported as inconclusive [inhibitor, single point]. For `Cc1ccc(N=Nc2c(C)[nH]n(C(N)=S)c2=O)cc1`, the Potency was inconclusive [inhibitor, full curve]. For `O=C(c1ccccc1Oc1ccccc1)N1CCN(c2ccc(F)cc2)CC1`, the Potency was inconclusive [inhibitor, single point]. With `CC(C)=NNc1nc(-c2ccccc2)c(C)s1` the Potency was inconclusive [inhibitor, single point]. For `COc1cccc(NC(c2nnc(-c3ccccc3)o2)c2ccc(F)cc2Cl)c1` (stereo not drawn), the Potency was inconclusive [inhibitor, single point]. In the case of `CCC(C)OC(=O)C1=C(C)NC2=C(C(=O)C(C(=O)OC)C(C)C2)C1c1ccc(N(C)C)cc1` (stereo not drawn), the Potency is reported as inconclusive [inhibitor, single point]. For `COc1ccc(C(=O)NCC(c2cccnc2)N2CCN(c3ccccc3OC)CC2)cc1` (stereo not drawn), the Potency was active: 11.6 µM. In the case of `CCc1ccc(OCC(=O)N/N=C(\C)c2ccccc2OC(F)F)cc1`, the Potency is reported as active: 16.4 µM. With `CC(C)(C)[C@@H]1C=C(C(=O)Nc2ccccc2)O[C@H](OCc2ccc(CO)cc2)C1` the Potency was active: 20.6 µM. For `Cc1cc(NC(=O)CSC2=NS(=O)(=O)c3cc(Cl)ccc3N2)no1`, the Potency was “inactive”. For `C#CC(C)(CC)NC(=O)Cn1nnc(-c2ccc(OCc3ccccc3Cl)cc2)n1` (stereo not drawn), the Potency was inconclusive [inhibitor, full curve]. For `Cc1ccc(NC(=O)Cn2c(SCc3cccc(F)c3)nc3ccncc32)c(C)c1`, the Potency was inconclusive [inhibitor, single point]. In the case of `COc1ccc(Br)cc1CNC(=O)CN1C(=O)CCCc2ccccc21`, the Potency is reported as inconclusive [inhibitor, single point]. With `CN1C[C@@H]2[C@@H]3C(=O)N(C)C(=O)[C@@H]3[C@](Cc3ccccc3)(C1=O)N2C(=O)c1ccc(Cl)cc1` the Potency was “inactive”. With `CCC(=O)Nc1ccc(-c2nnc(SCC(=O)Nc3nccs3)n2C)cc1` the Potency was inconclusive [inhibitor, single point]. With `CN1C2=CC=CC=CC2=[N+](C)C12C([N+](=O)[O-])=CC(=[N+]([O-])[O-])C=C2[N+](=O)[O-]` (stereo not drawn) the Potency was active: 2.06 µM. With `COc1ccc(CCN2CC(C(=O)NCc3cnn(C(C)C)c3)CCC2=O)cc1` (stereo not drawn) the Potency was “inactive”. For `O=C(Cc1cccs1)Nc1nnc(CCc2ccccc2)s1`, the Potency was “inactive”. With `CCCN(CCC)C(=O)c1c[nH]c2ccc(S(=O)(=O)N(C)c3ccc(OCC)cc3)cc2c1=O` the Potency was inconclusive [inhibitor, single point]. In the case of `COc1ccc(CCNC(=O)c2ccc3c(Cl)c4c(nc3c2)CCCC4)cc1OC`, the Potency is reported as active: 4.11 µM. In the case of `COCCCNC(=O)C1CCCN(c2ncnc3onc(C)c23)C1` (stereo not drawn), the Potency is reported as inconclusive [inhibitor, single point]. With `O=C(/C=C/c1ccco1)Nc1ccccc1C(=O)O` the Potency was “inactive”. In the case of `O=S(=O)(NC1CCCCCCC1)c1ccccc1`, the Potency is reported as inconclusive [inhibitor, single point]. In the case of `CC(c1ccccc1)n1c(-c2ccc(Cl)cc2)n[nH]c1=S` (stereo not drawn), the Potency is reported as inconclusive [inhibitor, single point]. In the case of `COc1ccc(C=O)cc1COc1ccc(F)cc1F`, the Potency is reported as inconclusive [inhibitor, single point]. In the case of `CN1CCN(C(=O)C23CC4CC(CC(C4)C2)C3)CC1`, the Potency is reported as inconclusive [inhibitor, full curve, poor fit]. In the case of `O=C(CN1CCN(c2ccccn2)CC1)Nc1ccc(Oc2ccccc2)cc1`, the Potency is reported as inconclusive [inhibitor, single point]. In the case of `NC(=O)c1oc2ccccc2c1NC(=O)c1ccc(F)cc1`, the Potency is reported as “inactive”. In the case of `C=CCOC(=O)C(=O)/C=C/c1csc2ccccc12`, the Potency is reported as inconclusive [inhibitor, single point]. In the case of `Cc1cc(C)cc(CN2CCC(Oc3ccc(C(=O)N4CCCC4)cc3)CC2)c1`, the Potency is reported as active: 23.1 µM.
